Data taken from patent publication US8785600B2, “Anti-GCC antibody molecules and related compositions and methods” (Millennium Pharmaceuticals, Inc., priority 2009, dated 2014).

B1: Abx-338: Human anti-GCC SLAM mAb, IgG1,k; VH SEQ ID NO:50, VL SEQ ID NO:52 (antibody, V domains shown)
VH: QVQLQESGPGLVKPSETLSLTCTVSGGSIRSYYWSWIRQPAGKGLEWIGRIYISGRTTFNPSLKSRVTISVDTSKNQFSLKLSSVTAADTAVYFCARDRYYGYLDYWGQGTLVTVSS
VL: [letters of about 100 residues not shown]STFGQGTRLEIK
B2: Abx-012: Human anti-GCC SLAM mAb, IgG1,k; VH SEQ ID NO:239, VL SEQ ID NO:241 (antibody, V domains shown)
VH: B1 VH with G27A, R30S, S31H, T58S, F59Y, I69V, F94Y, Y100L, Y101T, L104F
VL: [letters of about 100 residues not shown]
B3: Abx-106: Human anti-GCC SLAM mAb, IgG1,k; VH SEQ ID NO:243, VL SEQ ID NO:245 (antibody, V domains shown)
VH: B1 VH with G27A, R30S, S31H, T58S, F59Y, I69V, F94Y, Y100L, Y101T, L104F
VL: [letters of about 100 residues not shown]CSFGQGTKLEIK

Columns and labels:
[1] = tested on: GCC 20-mer peptides (aa 1-440); assay: Epitope mapping by peptide array; assay type: binding, human; settings: 20-mer peptides with 15 aa overlap, GCC aa 1-440
From the text: Multiple strategies were initiated to identify epitopes. Peptide array. 20-mer peptides, with 15 aa overlap were generated, covering the extracellular domain (ECD) into the transmembrane domain of GCC (aa 1-440). Peptides were synthesized and provided as arrays, immobilized on glass slides. Arrays were hybridized with each of the anti-GCC antibodies to determine if linear peptides were sufficient for binding. […] The sequence, […] (SEQ ID NO:225) is spanned by these peptides. A region of overlap among the peptides is […] (SEQ ID NO:314). […] The sequence, […] (SEQ ID NO:226), and the sequence […] (SEQ ID NO:315) overlaps the two peptides.

GCC in HT29-GCC#18 cells = assay: Inhibition of ST peptide-induced calcium ion flux (cGMP assay); assay type: cell-based, human; settings: 50 nM ST
Description: Additionally, some antibodies were tested for their ability to inhibit the ST peptide-induced calcium ion flux in GCC-expressing cells. The cGMP assay was performed in HT29-GCC#18 cells in the presence of 50 nM ST in the presence or absence of anti-GCC antibody molecules.

Molecule	Peptides bound in peptide array [1]	Inhibition of ST peptide-induced calcium ion flux (GCC in HT29-GCC#18 cells)
B1	peptides 71 and 72	inhibited
B2	peptides 71 and 72	–
B3	peptides 71 and 72	–

Residue numbers refer to the chain shown, from its start.
